Experimental findings from the supplement of paper PMC12632987 are described below.

Whole data set: some 4,500 sequences, median “median log2 fold change of GCK-ALFA target abundance (FLAG IP / Myc IP barcode read proportion)” near 0.078, cut for the lowest 2% near -0.6. This is one part of the list.

B1: GBRAP_39_5671 (protein)
chain: EEEEEAEDVVSYLEGVAAKYLYETGKSLEEAYKEAVKILEKYAKEHPELKELLEELIKLAEEKGEEAKLVLIGVAVLIEEGTPDEEIKEYIELAIKYFKS
B2: GBRAP_166_4979 (protein)
chain: DQEERVEELKKYIKEQAEKAKTADYEEKLELLAEVAEKIREAKEEGLSEENFRELVRYTLEEFSKVGIKLSDVFGALSIIAELDEEEVELLLEEEKEVKA
B3: GBRAP_90_7011 (protein)
chain: SATEKKVEELKHREEVELELIDLGVVAARDDEELEYAMEILDEYNAAAATAILAVRELEPIIGKEEAEKFIEKIREAGNDVEKIKKLLKEAYEKAIKIAK
B4: GBRAP_128_3512 (protein)
chain: SMEEAVARARELMRAIGEADEEEARRLTRELVALIDAADDETAEAIADTAIELLPELSREKLEVVADTLEEERPRLSPLKANLVADIAVEALNLAEELEE
B5: GBRAP_160_4868 (protein)
chain: MEKLEKALKIIKEHEEEALEAVEEAPASDRAAIAAAIAGEAIQELIEEGLVSDELEDELMKVVDEMKAELEANADASVEEHKKIIKKAFEKMKKIVKEKM
B6: GBRAP_128_3468 (protein)
chain: STEEAVAYARELMAKIKEADDEEARELAEELAERLKTLTLEEVEAVVEEIEKRLPELSAEKLEILADVLRKALPKLTPEKAALVADVISDALLLAEELEE
B7: GBRAP_96_7093 (protein)
chain: EVEEAKKLIEELKENLDKNKEKAKELAKELSKYSDDVLEEALREVELTPEEVKKILEIFKEISLEEAERFALLIAEVLDSEVSQVALEYLKELEEEEDEE
B8: GBRAP_184_5046 (protein)
chain: EILEETIEVKDLEELKAKMAALREKVANIKGELILHVIAPEFTKEMVEALMKALKEILDEGYVTSVTVGLDGKMSEEVIDLAIELADKAGIKLVLALEEE
B9: GBRAP_160_4579 (protein)
chain: SEKLEKVEKAIKEAAEEVIKEVDKVSKEEVINILEVEFGAVILEALDEGLISYETAEKLLEIVDETVAKLKANPNLTPEEIKELIKEAEEKMIKTLKEDS
B10: GBRAP_52_6154 (protein)
chain: MEERAREYAERFVAAVKAGDEEEARAIMEEIAATLDDEEIALFLEHVAELVAGLSPEDRERVVEAVLEFEDIAEAAGHDPELLSYHTARVAGAAYAALQA
B11: GBRAP_184_5091 (protein)
chain: KTLEALVEAETFEEAKAKLKEVLATAAAQKANLTVLVDLKGLDVEEAIELIKLAGAAKAAGKVPDVTIGFANAFTEEEIDKILKAADEEGVKVVLPIKEE
B12: GBRAP_35_5564 (protein)
chain: DFSKTVAEMMANTIDALTEAVDDMDPAELLTITEQIMRAAKEVIEDIKDDKESLKLLLESLRRLRDAIEARGLDDPNLRAAAAAVEEAIELAEKAIAEAK
B13: GBRAP_160_4680 (protein)
chain: SEKVEEAKEFIDEEFAEVLALHDEMTPEQLAAAVRVAFGEIKLYLEELGLLTDEVEAVIDEEEARIVAYVLAHPDITREEFAALLEEAREEIVEELEKAE
B14: GBRAP_11_2812 (protein)
chain: MPEEQKKALEALREARELARRLIEEEPGNEELLEELLRKLEEALKLVKKHLSEAHKKDAEVALELARLALEDPENRLEYVRNTRAALDTLIANIEEELEE
B15: GBRAP_48_5838 (protein)
chain: SEEKKEKAIEEILEVIKRTAEELEEAKEEGLSEAAFEAILIDAAEEIKEILEKYLGLGEKFAALPLEEQLEIVRKAVEILKEEGEEAARKYIEEVIKELE
B16: GBRAP_160_4639 (protein)
chain: SPEVEELKEIIEEGTEIVLEEVDAGDLANALAALRVMVGEVVMEAVEDPRFSDEDVDRLDALGDAAVARFAAAEGASPEELKAIVEEAAEELKELVKSFF
B17: GBRAP_78_6707 (protein)
chain: MVEEKLEEAIKELNKAAKLLVKEGTELANEALGELVDAITYLWEAIEEGADLKLLEEALKHLKKAIEIAKKLNVENKEEILKHLEKAKKLVEEAIKEVKK
B18: GBRAP_184_5141 (protein)
chain: TLLVRYIDAETVEEALAGARAAFEEAKAAGAKLTLFVDAEGLSVEEVAELARRLRALADELGLPDANIILEVTADEEEADRIIAAADAAGVRVVVALEEE
B19: GBRAP_35_5620 (protein)
chain: NIDEETVELALDVLRDAVEALEEGDAAALAPALVRIATAALDILTDEKDKVPNAAEYLKEFAALLDRAIAILAAHPELAAERAALEKIRAEVEALLKEVE
B20: GBRAP_52_6324 (protein)
chain: SSAKVQAYADALVAAIRAGDEAEARALAEKMVAELSPEEILEMARLVAEAIAGEDDEVHERAAEVFEYLADLVIEKKGDEETAAEILGIYATTLYAAEQA
B21: GBRAP_160_4716 (protein)
chain: AATAEKRIAFVDEEMAEARELVKGESIAQRAVILRGTGGEIIMELWEDPNASDELIDEVDAIIDAAVATLEANPDLTDAEIDALIAAARAAMKAAIKKHY
B22: GBRAP_35_5563 (protein)
chain: DFDETVAEMMANTVDALTEAVPDLDPATLLQITQQIMAAVKKVIEDIKNNKEALEKILKSLEKLRAAIEAQGLDDPNRQAALAAVEEAIKLAKKAIKEAK
B23: GBRAP_52_5945 (protein)
chain: SEAKVRALAEAFVEAAAAGDEEKAREILLEAAKTLNDEEWDLFADALAELLATADLETIERVLEIILENEDELEKLGVSEEQIGRLEAAAATAGLAALQA
B24: GBRAP_43_5754 (protein)
chain: MKELIEGSIDFALLAAESPEISEEQKLKIIKDVFDIVADEGIDLKEELLKLVEAAAKSLSKEQLEELLKHAKELAEKYPELKEMFEEAAKILKEAIEKLK
B25: GBRAP_43_5788 (protein)
chain: MKEIVEGTLDFAFTALETPEITDETKGKIVVDAVEFAIDEGTLTPEELKKLLEAAKKSISPEVFAKALKEILKHAKKEGAPQELIDIIEKALKEAEKEIA
B26: GBRAP_160_4537 (protein)
chain: NEKVEELLKDLDEEEEFIISLVDEVSVEELQNFIRVEVGSFILYGRELGVISDELEEKIDAIVDETIATLNANKNASVEEKKAIIKEAFEKIKEAIKESS
B27: GBRAP_160_4647 (protein)
chain: MESLKEIKEIIEEYSEIAKEYIKEGDLEGAIAAMRMMVGDVVLEADEDPKFSEEDVDELDKLGREGVEKLEAARDKSPEELIKLVEETKKELLELIEKYY
B28: GBRAP_11_2895 (protein)
chain: KKEKLEKLAELAKKAVELLEKLLKEGPENKELREELKKTIKEAEKLAKEVLDESDVELVKEILELLKKSEEDPENAEEYLKEALAFARVLEGQVLLKIEE
B29: GBRAP_52_6117 (protein)
chain: MRERLRAEVRELLELVRAGRLEEARRRARELVASIDDEELRLLAEALAELAREAAPEDLDAVWRLAEILAEEMEEAGYDEVLVDDLLARTAAALYERELA

Sequence of GABARAP, O95166 (O95166 whole entry, the tested form may be a part): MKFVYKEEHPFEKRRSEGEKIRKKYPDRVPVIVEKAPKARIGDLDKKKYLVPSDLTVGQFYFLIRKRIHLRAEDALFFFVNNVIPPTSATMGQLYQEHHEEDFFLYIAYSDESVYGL

The assay concerns the target GABARAP, O95166. Description: median log2 fold change of GCK-ALFA target abundance (FLAG IP / Myc IP barcode read proportion) (log2 ratio); each designed protein is fused to an ALFA-tag nanobody in HEK293 cells to bring the named protein to FLAG-tagged glucokinase (GCK); Myc marks an untargeted standard; higher = target protein stabilised (more abundant). The following applies: target protein: 3xFLAG-MCP-GCK-ALFA reporter; HEK293 landing pad (RPLP). Put shortly: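 HEK293 landing-pad cells received a recombined binder library fused to the ALFA nanobody and were induced with 2 μg mL^−1 doxycycline, then transfected with a plasmid encoding a FLAG-tagged target and a Myc-tagged standard. Lysates were collected after 48 h for anti-FLAG and anti-Myc immunoprecipitation, and the circular RNA barcodes were reverse transcribed, amplified and sequenced. Target abundance for each binder is the median log2 ratio of FLAG to Myc barcode read proportions. Barcodes had to reach a proportion of at least 10^−7 in both replicates, each binder needed at least 3 barcodes per replicate, a pseudocount of 10^−6 was applied, and the two replicates were pooled.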
For B1, the “median log2 fold change” value came out at 0.283.
The value for B2 was 0.211; that for B3 was 0.104.
The value for B4 was 0.141; that for B5 was 0.169; that for B6 was 0.145.
The value for B7 was 0.247; that for B8 was 0.0197; that for B9 was -0.0902.
Take B10: the “median log2 fold change” value amounted to 0.0811.
B11: the “median log2 fold change” value amounted to 0.114.
The value for B12 was 0.0486; that for B13 was -0.163; that for B14 was 0.237.
The result for B15 reads 0.0401; that for B16, -0.325.
The value for B17 was -0.319; that for B18 was 0.11; that for B19 was -0.325.
Turning to B20, the “median log2 fold change” value was found to be 0.119.
The result for B21 reads -0.524; that for B22, -0.166; that for B23, -0.137.
Regarding B24, the “median log2 fold change” value worked out at 0.274.
The value for B25 was 0.536; that for B26 was -0.0723; that for B27 was -0.0683.
The value for B28 was 0.14; that for B29 was -0.215.
